The results in this text go back to US7652041B2, “Cinnamide and hydrocinnamide derivatives with kinase inhibitory activity” (Millennium Pharmaceuticals, Inc., priority 2005, dated 2010).

For orientation: IC50 means the concentration needed to halve the response being measured. Lower therefore signals inhibition by little substance.

The test system of this experiment is A375 cells. The experiment can be described thus: Phospho-ERK ELISA assay. The experiment is classed as cell-based. As to conditions: Homo sapiens, A-375, 3 hours with inhibitor, anti-p44/42MAPK antibody ELISA, normalized for protein content. The gist of the method: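 A375 cells treated with Raf kinase inhibitors for 3 hours at 37° C, then fixed, permeabilised with methanol and immunostained with anti-p44/42 MAPK antibody plus HRP secondary. TMB colour read as optical density at 650 nm, normalised to well protein content by BCA assay.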
In general terms: ELISA stands for enzyme-linked immunosorbent assay.
`COc1cc(NC(=O)CCc2cccc(Oc3ccnc(C4=NCCN4)c3)c2)cc(C(F)(F)F)c1` [Compound A-209, 3-(3-{[2-(4,5-dihydro-1H-imidazol-2-yl)pyridin-4-yl]oxy}phenyl)-N-[3-methoxy-5-(trifluoromethyl)phenyl]propanamide] displayed an IC50 of 1 to 10 µM.

`CC(=O)Nc1cc(Oc2cccc(CCC(=O)Nc3cc(OCCN(C)C)cc(C(F)(F)F)c3)c2)ccn1` [Compound A-211, 3-(3-{[2-(acetylamino)pyridin-4-yl]oxy}phenyl)-N-[3-[2-(dimethylamino)ethoxy]-5-(trifluoromethyl)phenyl]propanamide] came in with an IC50 of 1 to 10 µM. Take `O=C(CCc1cccc(Oc2ccnc(C3=NCCN3)c2)c1)Nc1ccc(F)c(C(F)(F)F)c1` [Compound A-213, 3-(3-{[2-(4,5-dihydro-1H-imidazol-2-yl)pyridin-4-yl]oxy}phenyl)-N-[4-fluoro-3-(trifluoromethyl)phenyl]propanamide]: the IC50 lay within 10 to 25 µM.

In turn, `COC(=O)c1ccc(NC(=O)CCc2cccc(Oc3ccnc(C4=NCCN4)c3)c2)cc1C(F)(F)F` [Compound A-216, methyl 4-{[3-(3-{[2-(4,5-dihydro-1H-imidazol-2-yl)pyridin-4-yl]oxy}phenyl)propanoyl]amino}-2-(trifluoromethyl)benzoate] had an IC50 of 1 to 10 µM. `O=C(CCc1cccc(Oc2ccnc(C3=NCCN3)c2)c1)Nc1cc(C(F)(F)F)c(Cl)cc1O` [Compound A-218, N-[4-chloro-2-hydroxy-5-(trifluoromethyl)phenyl]-3-(3-{[2-(4,5-dihydro-1H-imidazol-2-yl)pyridin-4-yl]oxy}phenyl)propanamide] came in with an IC50 of 1 to 10 µM.

Regarding `COc1ccc(C(C)(C)C)cc1NC(=O)CCc1cccc(Oc2ccnc(C3=NCCN3)c2)c1` [Compound A-219, N-(5-tert-butyl-2-methoxyphenyl)-3-(3-{[2-(4,5-dihydro-1H-imidazol-2-yl)pyridin-4-yl]oxy}phenyl)propanamide], the IC50 was not above 1 µM. As for `O=C(CCc1cccc(Oc2ccnc(C3=NCCN3)c2)c1)Nc1cc(OCCN2CCCC2)cc(C(F)(F)F)c1` [Compound A-220, 3-(3-{[2-(4,5-dihydro-1H-imidazol-2-yl)pyridin-4-yl]oxy}phenyl)-N-[3-(2-pyrrolidin-1-ylethoxy)-5-(trifluoromethyl)phenyl]propanamide], the figure is 1 to 10 µM; as for `Cc1cc(NC(=O)CCc2ccc(Oc3ccnc(C4=NCCN4)c3)cc2)ccc1Cl` [Compound A-223, N-(4-chloro-3-methylphenyl)-3-(4-{[2-(4,5-dihydro-1H-imidazol-2-yl)pyridin-4-yl]oxy}phenyl)propanamide], 1 to 10 µM; as for `CNC(=O)c1cc(Oc2cccc(CCC(=O)Nc3cc(N)cc(C(F)(F)F)c3)c2)ccn1` [Compound A-225, 4-[3-(3-{[3-an-no-5-(trifluoromethyl)phenyl]amino}-3-oxopropyl)phenoxy]-N-methylpyridine-2-carboxamide], 10 to 25 µM. As for `O=C(CCc1cccc(Oc2ccnc(-c3ncc(CN4CCCC4)[nH]3)c2)c1)Nc1ccc(Cl)c(C(F)(F)F)c1` [Compound A-226, N-[4-chloro-3-(trifluoromethyl)phenyl]-3-[3-({2-[5-(pyrrolidin-1-ylmethyl)-1H-imidazol-2-yl]pyridin-4-yl}oxy)phenyl]propanamide], the figure is 1 to 10 µM. The figure for `N=C(NCCN1CCOCC1)c1cc(Oc2ccc(CCC(=O)Nc3ccc(Cl)c(C(F)(F)F)c3)cc2)ccn1` [Compound A-227, N-[4-chloro-3-(trifluoromethyl)phenyl]-3-{4-[(2-{imino[(2-morpholin-4-ylethyl)amino]methyl}pyridin-4-yl)oxy]phenyl}propanamide] is 10 to 25 µM. For the compound `N=C(N)c1cc(Oc2cccc(CCC(=O)Nc3ccc(Cl)c(C(F)(F)F)c3)c2)ccn1` [Compound A-228, 3-[3-({2-[amino(imino)methyl]pyridin-4-yl}oxy)phenyl]-N-[4-chloro-3-(trifluoromethyl)phenyl]propanamide], the IC50 was 1 to 10 µM.

With `CC(C)(C)c1cc(NC(=O)CCc2cccc(Oc3ccnc(C4=NCCN4)c3)c2)cc(C(C)(C)C)c1` [Compound A-230, N-(3,5-di-tert-butylphenyl)-3-(3-{[2-(4,5-dihydro-1H-imidazol-2-yl)pyridin-4-yl]oxy}phenyl)propanamide], the IC50 is 1 to 10 µM.

`O=C(CCc1cccc(Oc2ccnc(C3=NCCN3)c2)c1)Nc1cc(OCCN2CCOCC2)cc(C(F)(F)F)c1` [Compound A-231, 3-(3-{[2-(4,5-dihydro-1H-imidazol-2-yl)pyridin-4-yl]oxy}phenyl)-N-[3-(2-morpholin-4-ylethoxy)-5-(trifluoromethyl)phenyl]propanamide] returned an IC50 of 1 to 10 µM. The figure for `Cc1cnc(-c2cc(Oc3ccc(CCC(=O)Nc4ccc(Cl)c(C(F)(F)F)c4)cc3)ccn2)[nH]1` [Compound A-232, N-[4-chloro-3-(trifluoromethyl)phenyl]-3-(4-{[2-(5-methyl-1H-imidazol-2-yl)pyridin-4-yl]oxy}phenyl)propanamide] is 1 to 10 µM; for `Nc1cc(NC(=O)CCc2cccc(Oc3ccnc(C4=NCCN4)c3)c2)cc(C(F)(F)F)c1` [Compound A-233, N-[3-amino-5-(trifluoromethyl)phenyl]-3-(3-{[2-(4,5-dihydro-1H-imidazol-2-yl)pyridin-4-yl]oxy}phenyl)propanamide] it is 1 to 10 µM; for `COC(=O)CCc1ccc(NC(=O)CCc2cccc(Oc3ccnc(C4=NCCN4)c3)c2)cc1C(F)(F)F` [Compound A-234, methyl 3-[4-{[3-(3-{[2-(4,5-dihydro-1H-imidazol-2-yl)pyridin-4-yl]oxy}phenyl)propanoyl]amino}-2-(trifluoromethyl)phenyl]propanoate] it is 10 to 25 µM. For the compound `CN(C)CCNC(=O)C1CNC(c2cc(Oc3cccc(CCC(=O)Nc4ccc(Cl)c(C(F)(F)F)c4)c3)ccn2)=N1` (centres unmarked) [Compound A-237, 2-{4-[3-(3-{[4-chloro-3-(trifluoromethyl)phenyl]amino}-3-oxopropyl)phenoxy]pyridin-2-yl}-N-[2-(dimethylamino)ethyl]-4,5-dihydro-1H-imidazole-4-carboxamide], the IC50 was in the range of 1 to 10 µM.

On to `O=C(CCc1cccc(Oc2ccnc(C3=NCCN3)c2)c1)Nc1ccc(I)c(C(F)(F)F)c1` [Compound A-239, 3-(3-{[2-(4,5-dihydro-1H-imidazol-2-yl)pyridin-4-yl]oxy}phenyl)-N-[4-iodo-3-(trifluoromethyl)phenyl]propanamide], for which the IC50 was in the range of 1 to 10 µM. As for `O=C(CCc1ccc(Oc2ccnc(C3=NC(CO)CN3)c2)cc1)Nc1ccc(Cl)c(C(F)(F)F)c1` (centres unmarked) [Compound A-243, N-[4-chloro-3-(trifluoromethyl)phenyl]-3-[4-({2-[4-(hydroxymethyl)-4,5-dihydro-1H-imidazol-2-yl]pyridin-4-yl}oxy)phenyl]propanamide], the figure is 1 to 10 µM; as for `CN(C)CCCc1ccc(NC(=O)CCc2cccc(Oc3ccnc(C4=NCCN4)c3)c2)cc1C(F)(F)F` [Compound A-244, 3-(3-{[2-(4,5-dihydro-1H-imidazol-2-yl)pyridin-4-yl]oxy}phenyl)-N-[4-[3-(dimethylamino)propyl]-3-(trifluoromethyl)phenyl]propanamide], 1 to 10 µM; as for `N=C(N)c1cc(Oc2ccc(CCC(=O)Nc3ccc(Cl)c(C(F)(F)F)c3)cc2)ccn1` [Compound A-245, 3-[4-({2-[amino(imino)methyl]pyridin-4-yl}oxy)phenyl]-N-[4-chloro-3-(trifluoromethyl)phenyl]propanamide], 1 to 10 µM. Turning to `COC[C@@H]1CNC(c2cc(Oc3cccc(CCC(=O)Nc4ccc(Cl)c(C(F)(F)F)c4)c3)ccn2)=N1` [Compound A-248, N-[4-chloro-3-(trifluoromethyl)phenyl]-3-[3-({2-[(4S)-4-(methoxymethyl)-4,5-dihydro-1H-imidazol-2-yl]pyridin-4-yl}oxy)phenyl]propanamide], the IC50 was 1 to 10 µM. The figure for `O=C(CCc1cccc(Oc2ccnc(C3=NCCN3)c2)c1)Nc1cccc(Cl)c1` [Compound A-249, N-(3-chlorophenyl)-3-(3-{[2-(4,5-dihydro-1H-imidazol-2-yl)pyridin-4-yl]oxy}phenyl)propanamide] is 10 to 25 µM; for `C[C@@H]1CNC(c2cc(Oc3cccc(CCC(=O)Nc4ccc(Cl)c(C(F)(F)F)c4)c3)ccn2)=N1` [Compound A-251, N-[4-chloro-3-(trifluoromethyl)phenyl]-3-[3-({2-[(4R)-4-methyl-4,5-dihydro-1H-imidazol-2-yl]pyridin-4-yl}oxy)phenyl]propanamide] it is 1 to 10 µM. For the compound `O=C(CCc1cccc(Oc2ccnc(C3=NCCN3)c2)c1)Nc1ccc(C(F)(F)F)c(Cl)c1` [Compound A-255, N-[3-chloro-4-(trifluoromethyl)phenyl]-3-(3-{[2-(4,5-dihydro-1H-imidazol-2-yl)pyridin-4-yl]oxy}phenyl)propanamide], the IC50 was 1 to 10 µM. The figure for `O=C(CCc1cccc(Oc2ccnc(C3=NCCN3)c2)c1)Nc1ccc(Br)c(C(F)(F)F)c1` [Compound A-257, N-[4-bromo-3-(trifluoromethyl)phenyl]-3-(3-{[2-(4,5-dihydro-1H-imidazol-2-yl)pyridin-4-yl]oxy}phenyl)propanamide] is 1 to 10 µM; for `CNC(=O)C1CNC(c2cc(Oc3cccc(CCC(=O)Nc4ccc(Cl)c(C(F)(F)F)c4)c3)ccn2)=N1` (centres unmarked) [Compound A-259, 2-{4-[3-(3-{[4-chloro-3-(trifluoromethyl)phenyl]amino}-3-oxopropyl)phenoxy]pyridin-2-yl}-N-methyl-4,5-dihydro-1H-imidazole-4-carboxamide] it is 10 to 25 µM.

With `CCc1ccc(NC(=O)CCc2cccc(Oc3ccnc(C4=NCCN4)c3)c2)cc1C(F)(F)F` [Compound A-265, 3-(3-{[2-(4,5-dihydro-1H-imidazol-2-yl)pyridin-4-yl]oxy}phenyl)-N-[4-ethyl-3-(trifluoromethyl)phenyl]propanamide], the IC50 is not above 1 µM.
